Source: PubChem BioAssay AID624417 (National Center for Advancing Translational Sciences (NCATS), 2012)
Screen size: about 410,000 compounds; about 6,400 (1.6%) were called active. The shares of active, inactive and inconclusive entries below differ from those in the screen. Calls follow the shape of the dose curve; as a rule, active = well fitted inhibition curve with a large enough effect; inconclusive = small, poorly fitted or top-dose-only effect; inactive = no such curve, though single readings can be large or run the other way. A potency beside an inconclusive call is a rough fit, not a confirmed value.

Biological target: Glucagon-like peptide 1 receptor (Homo sapiens) (UniProt P43220)
Test: qHTS of GLP-1 Receptor Inverse Agonists (Inhibition Mode); also: nearly all actives have a fitted effect of over 55% in size
Settings: HEK293 GLP-1R CRE-luciferase, luminescence, 24 h, GLP-1R form is constitutively active; activity change, negative = inhibition: at 38.3 µM (top of the series) unless noted
Method in brief: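 Inverse agonism was detected as reduced cAMP-driven luciferase luminescence after 24 h compound treatment. The cells were HEK293 clones expressing constitutively active human GLP-1R with the reporter. Reporter-only and GPR119 cell lines served as counterscreen controls.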
% is scaled to controls: 0 for no effect and ±100 for the full control effect; potency is read from the fitted curve at half-maximal effect; tags tell the direction and shape of the fitted curve.

Sequence of UniProt P43220 (P43220 whole entry, looked up): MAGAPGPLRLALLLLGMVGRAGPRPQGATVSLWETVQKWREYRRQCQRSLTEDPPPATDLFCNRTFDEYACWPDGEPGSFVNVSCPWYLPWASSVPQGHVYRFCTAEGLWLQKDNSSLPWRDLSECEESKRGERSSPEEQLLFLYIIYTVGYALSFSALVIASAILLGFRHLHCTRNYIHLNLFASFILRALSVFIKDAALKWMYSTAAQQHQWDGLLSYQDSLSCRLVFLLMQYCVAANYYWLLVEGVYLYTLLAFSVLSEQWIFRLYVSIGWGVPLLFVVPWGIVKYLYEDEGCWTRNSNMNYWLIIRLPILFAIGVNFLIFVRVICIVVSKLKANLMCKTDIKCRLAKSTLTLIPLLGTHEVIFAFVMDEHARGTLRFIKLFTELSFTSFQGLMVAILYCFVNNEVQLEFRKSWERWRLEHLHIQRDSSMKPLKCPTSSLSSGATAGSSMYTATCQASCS

Potency, inconclusive:
Cn1cccc1Cc1nnc(SCC(=O)Nc2ccc3c(c2)OCO3)n1CCc1ccccc1 7.94 µM [inhibitor, partial curve, poor fit], CCOc1ccc(Nc2ncnc3ccc([N+](=O)[O-])cc23)cc1 2.24 µM [inhibitor, full curve, poor fit], CCN(CC)CCCNC(=O)c1ccc(-c2nc(CN3CCc4ccccc43)c(C)o2)cc1 12.6 µM [inhibitor, single point], Cc1oc2cc([N+](=O)[O-])c(O)c([N+](=O)[O-])c2c1C(=O)c1ccc(Cl)cc1 28.2 µM [inhibitor, single point], COC(=O)C(NC(=O)c1ccccc1)C(C)(C)SCc1ccccc1 (stereo not given) 28.2 µM [inhibitor, single point], CC(=O)c1ccc(-c2cnc3c(NC=O)cc(-c4cccc(NS(C)(=O)=O)c4)cn23)cc1 28.2 µM [inhibitor, single point], Clc1ccc(/C=C/c2nc3ccccc3[nH]2)cc1 11.2 µM [inhibitor, single point], Cc1ccc2c(c1)N(C(=O)CCC(=O)NC1CCCCCC1)CCO2 11.2 µM [inhibitor, partial curve, poor fit], O=C(CC1CCCC1)N1CCCC(Nc2ccc(F)cc2)C1 (stereo not given) 7.94 µM [inhibitor, partial curve, poor fit], CCN(CC)C(C)C(=O)Nc1c2c(cc3c1CCC3)CCC2 (stereo not given) 28.2 µM [inhibitor, single point], Cc1ccc(C)c(SCc2noc(C(=O)NC(C)C)c2C(=O)O)c1 28.2 µM [inhibitor, single point], CCC(C)Sc1cc(-c2nc3ccc(C)cn3c2NCc2ccccc2)ccc1OC (stereo not given) 2.82 µM [inhibitor, full curve, poor fit], Oc1ccc2ccccc2c1-c1sc(Nc2ccccc2)n[n+]1-c1ccc(F)cc1 12.6 µM [inhibitor, partial curve, poor fit], CCCN1C(=O)CN(C2CCCCCC2)C(=O)C1c1ccc(C)cc1 (stereo not given) 0.447 µM [inhibitor, full curve, poor fit], c1ccc(-c2nc3ccccc3nc2N2CCOCC2)cc1 11.2 µM [inhibitor, partial curve, poor fit], CCCc1cc(=O)[nH]c(Nc2ccc3c(c2)OCCO3)n1 28.2 µM [inhibitor, single point], COC(=O)c1ccc(/C=C/c2ccc3cccc(OC)c3n2)cc1 11.2 µM [inhibitor, single point], CCOc1ccccc1CN1CCC(CO)(CCOc2ccccc2)CC1 14.1 µM [inhibitor, single point], CCOC(=O)C1=C(c2ccccc2)NC(SCC(=O)Nc2ccccc2C)=C(C#N)C1c1ccco1 (stereo not given) 11.2 µM [inhibitor, single point], COc1ccc(-c2oc3ccccc3c2C#CC(C)(C)O)cc1 8.91 µM [inhibitor, partial curve, poor fit], Cc1ccc(OCCOCCOc2ccc(Br)cc2/C=N\NC(=O)c2ccncc2)cc1 11.2 µM [inhibitor, partial curve, poor fit], C/C(=N\NC(=O)CCCCCNC(=O)c1ccccc1)c1ccccc1O 11.2 µM [inhibitor, single point], CC(=NNC(=S)N1CCCCCC1)c1ccccn1 1.41 µM [inhibitor, full curve, poor fit], COc1ccc(C2CC(c3cccs3)=NN2c2ccc(F)cc2)cc1OC (stereo not given) 28.2 µM [inhibitor, single point], Cc1ccc2ccccc2c1C(O)c1ncc(-c2ccc(F)cc2)[nH]1 (stereo not given) 11.2 µM [inhibitor, partial curve, poor fit], O=C(CSC1=NCCS1)NC(c1ccccc1)c1ccccc1 10 µM [inhibitor, single point], CCCOc1ccc(-c2cc(C(=O)NCC3CCCO3)c3ccccc3n2)cc1 (stereo not given) 28.2 µM [inhibitor, single point], O=C(Nc1ccn(Cc2ccccc2)n1)c1n[nH]c([N+](=O)[O-])c1Cl 7.94 µM [inhibitor, partial curve, poor fit], CC(=O)Nc1cc(-c2ccccc2CN(C)C)cn2c(-c3ccc(C(C)=O)cc3)cnc12 14.1 µM [inhibitor, single point], Cc1cccc(CCNC(=O)c2ccc3c(c2)N(Cc2ccccc2F)C(=O)c2ccccc2S3)c1 28.2 µM [inhibitor, single point], CN(CC(=O)Nc1cccc(F)c1)C(=O)c1cccnc1Sc1ccc(Cl)cc1 12.6 µM [inhibitor, partial curve, poor fit]

Potency, active:
O=C(N1CCN=C1SCc1cccnc1)C12CC3CC(CC(C3)C1)C2 3.55 µM, S=C(NNc1ccc2ccccc2c1)NC1CCCCC1 10 µM

Activity change, negative = inhibition, inconclusive:
C=CCOc1c(Br)cc(/C=N/Nc2ccc(C(=O)O)cc2)cc1OCC -38.8% [inhibitor]

Activity change, negative = inhibition, inactive:
Cc1cccc(-c2noc(CN(C(=O)C34CC5CC(CC(C5)C3)C4)C(C)C)n2)c1 -16.2%, CCN(CC(=O)NCc1ccc(F)cc1)C(=O)c1ccc(C)o1 1.88%, COc1ccc(N2CCN(C(=O)CCn3nc(C)c(S(=O)(=O)N4CCCC4)c3C)CC2)cc1 -5.21%, CCOC(=O)N1CCN(C(=O)c2ccc3c(c2)sc2nc(-c4ccccc4)cn23)CC1 -11.5%, c1ccc(C(c2nnnn2C2CCCCC2)N2CCc3ccccc3C2)nc1 (stereo not given) 4.83%, N#C/C(=C(/O)c1cccs1)c1nnc2n1CCCCC2 56.2%
